Experimental data as given in the RNAGym collection of RNA variant scans (doi:10.1073/pnas.2313332121).
This sample is rich in variants without activity.

B1: TPR 5TU (parent)
chain: GGAUCUUCUCGAUCUAACAAAAAAGACAAAUCUGCCACAAAGCUUGAGAGCAUCUUCGGAUGCAGAGGCGGCAGCCUUCGGUGGCGCGAUAGCGCCAACGUUCUCAACUAUGACACGCAAAACGCGUGCUCCGUUGAAUGGAGUUUAUCAUG

Variants of: B1
Assay: polymerase ribozyme fitness, log enrichment relative to wild type (log ratio); higher = more active; in vitro selection for triplet polymerase activity
Method in brief: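 Streptavidin-bead capture of gel-excised extended constructs, followed by RT-PCR, closed a single triplicate in vitro selection round. That round began by annealing PCR-built, transcribed mutant libraries of each subunit of a heterodimeric triplet polymerase ribozyme with a biotinylated primer, the partner subunit and triplets, then incubating them frozen at −7 °C. After Illumina sequencing of inputs and outputs, genotypes needed ≥10 input reads and ≥1 read per output. Fitness is the base-2 logarithm of genotype enrichment over wild-type enrichment, using inverse-variance-weighted replicate averages.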

Row | Variant | polymerase ribozyme fitness (log ratio)
1 | GGAUCUUCUCGAUCUAACAAAAAAGACAAAUCUGCCACAAAGCUUGAGAGCAUCUUCGUAUGCAGAGGCGGCAGCCUUCGGUGGCGCCAUAGCGCCAACGGUCUCAACUAUGACACGCAAAACGCGUGCUCCGUUGAAUGGAGUUUAUCAUG [G59U G88C U101G] | ≤ -4.2
2 | GGAUCUUCUCGAUCUAACAAAAAAGACAAAUCUGCCACAAAGCUUGAGAGCAUCUUCGGCUGCAAAGGCGGCAGCCUUCGGUGGCGCGAUCGCGCCAACGUUCUCAACUAUGACACGCAAUACGCGUGCUCCGUUGAAUGUAGUUUAUCAUG [A60C G65A A91C A121U G141U] | ≤ -4.2
3 | GGAUCUUCUCGAUCUAACAAAAAAGACAAAUCUGCCACAAAGCUUGAGAGCAUCUUCGGGUGCAGAGGCGGCUGCCUUCGGUGGCGCGAUAGUGCCAACGUUCUCAACUAUGACACGCAAAACGCGUGCUCCUAUGAAUGGAGUUUAUCAUG [A60G A73U C93U G133U U134A] | ≤ -4.2
4 | GGAUCUUCUCGAUCUAACAAAAAAGACAAAUCUGCCACAAAGCUUGAGAGCAUCUUCGGCUGCAGAGGCGGCAGCCUUCGGUGGCGCGAUAGAGCCAUCGUUCUCAACUAUGACACGCAAACCGCGUGCUCCGUUGAAUGGAGUUUAUCAUG [A60C C93A A98U A122C] | -2.61
5 | GGAUCUUCUCGAUCUAACAAAAAAGACAAAUCUGCCACAAAGCUUGAGAGCAUCUUCGGGUGCAGCGGCGGCAGCCUUCGGUGGCGCGAUAGCUCCAACGUUCUCAAUUAUGACACGCAAAACGUGUGCUCCGUUGAACGGAGUUUAUCAUG [A60G A66C G94U C108U C125U U139C] | -4
6 | GGAUCUUCUCGAUCUAACAAAAAAGACAAAUCUGCCACAAAGCUUGAGAGCAUCUUCGGCUGCAGAGGCGGCUGCCUUCGGUGGCGCGAUAGCGCCAACGUUCUCAACUAUGACACGCAAAACGCGUGCUCCGUUGAAUGGAGUUUAUCAUG [A60C A73U] | -3.54
7 | GGAUCUUCUCGAUCUAACAAAAAAGACAAAUCUGCCACAAAGCUUGAGAGCAUCUUCGUAUGCAGAGGCGGCAGCCUUCAGUGGCGCGAUAGCGCCAACGUUCUCAACUAUGACACGCAAAACGCGAGCUCCGUUGAAUGGAGCUUAUCAUG [G59U G80A U127A U144C] | ≤ -4.2
8 | GGAUCUUCUCGAUCUAACAAAAAAGACAAAUCUGCCACAAAGCUUGAGAGCAUCUUCGGCUGUAGAGGCGGCAGCGUUCGGUGGUGCGAUAGCGCCACCGUUCUCAACUAUGACACGCUAAACGCGUGCUCCGUUGAAUUGAGUUUAUCAUG [A60C C63U C76G C85U A98C A119U G140U] | ≤ -4.2
9 | GGAUCUUCUCGAUCUAACAAAAAAGACAAAUCUGCCACAAAGCUUGAGAGCAUCUUCGUAUGCAGAGGCGGCAACCUUCGGUGGCGCGAUAGCGCCAACGUGCUCAACUAUGACACGCAAAACGCGUGCUCCGUUGAAUGGAGUUUAUCAUG [G59U G74A U102G] | ≤ -4.2
10 | GGAUCUUCUCGAUCUAACAAAAAAGACAAAUCUGCCACAAAGCUUGAGAGCAUCUUCGGGUGCAGAGGCGGCCGCCUUCGGUGGCGCGAUAGCUCCAACGUUCUCAACUAAGACACGCAAAACGCGUGCUCCGUUGAAUGGAGUUUAUCAUG [A60G A73C G94U U111A] | ≤ -4.2
11 | GGAUCUUCUCGAUCUAACAAAAAAGACAAAUCUGCCACAAAGCUUGAGAGCAUCUUCGGGUGCAGAGGCGGCAGCCUUCGGUGGCGCGAUAGCGCAAACGUUCUCAACUAUGACACGCAAUACGCGUGCUCCGUUGAAUGGAGUUUAUCAUG [A60G C96A A121U] | -0.437
12 | GGAUCUUCUCGAUCUAACAAAAAAGACAAAUCUGCCACAAAGCUUGAGAGCAUCUUCGGGUGCAGAGGCGGCUGCCUUCGGUGGCGCGAUAGUGCCAACGUUCUCAACUAUGAAACGCAAUACGCGUGCUCCGUUGAAUGGAGUCUAUCAUG [A60G A73U C93U C114A A121U U145C] | ≤ -4.2
13 | GGAUCUUCUCGAUCUAACAAAAAAGACAAAUCUGCCACAAAGCUUGAGAGCAUCUUCGGGUGCAGAGGCGGUAGCCUUCGGUGGCGCGAUAGCGCCAACGUUCUCAACUAUGACACGCAAAACACGUGCUCCGUUGAAUGGAGUUUAUCAUG [A60G C72U G124A] | 0.612
14 | GGAUCUUCUCGAUCUAACAAAAAAGACAAAUCUGCCACAAAGCUUGAGAGCAUCUUCGGCUGCAGAGGCGGCAGCCUUCGGUGGCGCGAUAUCGCCGACGUUCUCAACUAUGACACGCAAAACGCGUGCUCCGUUGAAUGGAGUUUAUCAUG [A60C G92U A97G] | -2.29
15 | GGAUCUUCUCGAUCUAACAAAAAAGACAAAUCUGCCACAAAGCUUGAGAGCAUCUUCGGCUGCAGAGGCGGCAACCUUCGGUGGCGCGAUAGCGCAAACGUUCUCAACUAUGACACACAAAACGCGUGCUGCGUUGGAUGGAGUUUAUCAUG [A60C G74A C96A G117A C131G A137G] | ≤ -4.2
16 | GGAUCUUCUCGAUCUAACAAAAAAGACAAAUCUGCCACAAAGCUUGAGAGCAUCUUCGUAUGCAGAGGCGGCAGCCGUCGGUGGCGCGAUAGCGCUAACGUUCUCAACUAUGACACGCAAAACGCUUGCUCCGUUGAAAGGAGUUUGUCAUG [G59U U77G C96U G126U U139A A147G] | ≤ -4.2
17 | GGAUCUUCUCGAUCUAACAAAAAAGACAAAUCUGCCACAAAGCUUGAGAGCAUCUUCGGGUGCAGAGGCGGCAGCAUUCCGUGGCGCGAUAGCCCCAACGUUCUCAACUAUGAUACGCAAAACGCGUGCUCCGUUGAAUGGACUUUAACAUG [A60G C76A G80C G94C C114U G143C U148A] | ≤ -4.2
18 | GGAUCUUCUCGAUCUAACAAAAAAGACAAAUCUGCCACAAAGCUUGAGAGCAUCUUCGGGUGCAGAGGAGGCAGCCUUCGGUGGCGCGAUUGCGCCUACGUUCUCAACUAUGACACGCAAAACGCGUGCUCCGCUGAAUGGAGUUUAUCAUG [A60G C69A A91U A97U U134C] | ≤ -4.2
19 | GGAUCUUCUCGAUCUAACAAAAAAGACAAAUCUGCCACAAAGCUUGAGAGCAUCUUCGGGUGCAGAGGCGGCAGCCUUCGGUGGUGCGAUAGCGCCAACGUUCUCAACUAUGACACGCAAAACGCGUGCUCCGUUGAAUGGAGGUUAUCAUG [A60G C85U U144G] | 0.543
